Reference: article PMC4207660, “Identification and Characterization of Hundreds of Potent and Selective Inhibitors of Trypanosoma brucei Growth from a Kinase-Targeted Library Screening Campaign” (PLoS Neglected Tropical Diseases, 2014)

Tests used:
HepG2 cells = test: Cytotoxicity assay (Cell Titer Glo, 48 h); conditions: HepG2 cells, 48 h
Procedure: This assay was used as selectivity assay, and selected hits from the primary were test in dose response concentration against HepG2 in order to identify the level of host cell cytotoxicity. Dose response starting at 10 mM and with 3-fold dilutions for 11 points, were made in 1,536-well master plates. 50 nL per well from them were stamped in final assay plates. The human biological samples were sourced ethically and their research use was in accord with the terms of informed consent.
Cell density was adjusted to 60,000 cells/mL as working concentration in prewarmed Eagle's MEM medium. Seeding density was be checked to ensure that new monolayers are not more than ∼ 50% confluent at the time of seeding (typically 3,000 cells per well), before completing preparation of plates. […] Viability was determined by Cell Titer Glo Kit (Promega) according to manufacturer's instructions: briefly, reconstituted Cell Titer Buffer was equilibrated to room temperature prior its use and 5 µL per well were dispensed with a Multidrop Combi Reagent Dispenser. Contents were mixed on a plate orbital shaker and incubated for 10 min at room temperature, to allow the signal to stabilize before luminescence reading on ViewLux Plate Reader (Perkin-Elmer).
Raw Luminescence data from the ViewLux reader were uploaded into GSK HTS database (ActivityBase). […]

[1] = system: T. brucei brucei parasites (Lister 427 strain); test: Dose response growth inhibition assay (resazurin, 72 h); type: cell-based; conditions: Trypanosoma brucei, 72 h; read-out: pEC50 (converted)
Procedure: Greiner sterile black clear bottom 384-well assay plates were pre-dispensing with 200 nL of compound in each well, from master plates at 1 mM (100% DMSO) containing selection from the GSK compound collection. Controls of 0% response (control 1, 200 nL of 100%DMSO) and 100% response (control 2, 200 nL of 1 mM pentamidine) were included in each assay plate in columns 6 and 18, respectively. Plates containing 200 nL of 100% DMSO were included randomly in the assay, to assess quality through all process. […] After this period, 10 µL of 200 µM resazurin solution in prewarmed HMI-9 were added to each well, and plates were allowed to incubate 2 hours more prior fluorescence reading in a Wallac EnVision Multilabel Plate Reader (Perkin-Elmer). Raw fluorescent data from the Envision plate reader were uploaded into GSK HTS database (ActivityBase). Activity of each well was normalized as a percentage of inhibition per-plate basis using the following equation: [drawing 1]
For dose-response experiments, serial compound dilutions of selected hits from the primary campaign were plotted against compound concentration. Dose response master plates were prepared by 3-fold dilutions (starting with 10 mM DMSO stock solutions), providing 11 concentrations. From these master plates, 200 nL per well was stamped in final assay plates, including the same controls describe in the primary single shot assay. Compounds were dispensed as serial dilution curve format, with 11 points at 3-fold dilution and 40 µM as starting top concentration (n = 2). Growth inhibition assay was performed as described in previous assay.
A 4-parameter equation describing a sigmoidal dose-response curve was then fitted with an adjustable baseline using ActivityBase XE Runner software. Fitting of dose-response curves and EC50 determination were normalized as percentage of inhibition based on controls. The curve-fit model was based on a 4-parameter equation: [drawing 2]
Trypanosome cell culture. […]

T. brucei = type: cell-based, Trypanosoma brucei brucei
Procedure: 100 nL per well from master plates were stamped in final assay black, clear-bottom 384-well Greiner microplates, including controls of 0% response (DMSO) and 100% response (2 μM Pentamidine): the final assay concentration was 20 μM. Plates containing DMSO were included randomly in the assay, to assess quality through all process. […] After 18 hours incubation, plates were centrifuged in a centrifuge (Beckman Coulter) for 5 min at 500 g, to sediment the cells, supernatant was aspirated with a Cybio-Well dispenser (Cybio), and 40 μL/well of fresh prewarmed HMI-9 were added: this cycle was performed three times. After the last cycle, 10 μL/well of cells suspension were aspirated by Cybio-Well equipment and dispensed over 40 μL of fresh prewarmed HMI-9 in “recovery plates”: calculated maximal residual concentration was 32 nM. […] Assay […] quality was determined by Z' score and validated data set were analyzed with ActivityBase software. As previous described percentage of inhibition was calculate for each concentration based on controls. A 4-parameter equation was used to fit the dose-response curves and pEC50 determination. The potential effect of residual drug remaining after washes was evaluated by performing the same protocol with standard trypanocidal drugs (such as suramin and diminazene) and negligible effect was observed. […]

ChromlogD assay = conditions: for logD: reversed-phase HPLC column (Luna C18 (2)), pH 7.4
Procedure: The Chromatographic Hydrophobicity Index (CHI)[22] values were measured using reversed phase HPLC column (Luna C18 (2), Phenomenex, UK) with a fast acetonitrile gradient at starting mobile phase of pH = 7.4. CHI values are derived directly from the gradient retention times by using a calibration line obtained for standard compounds. The CHI value approximates to the volume % organic concentration when the compound elutes. […] The average error of the assay is ±3 CHI unit or ±0.25 ChromlogD.

Row | Structure (SMILES) | pTC50 (HepG2 cells) | EC50 [1] [µM] | Cidal? (T. brucei) | logD (ChromlogD assay) | PFI (ChromlogD assay)
1 | CN[C@@H]1C[C@H]2O[C@@](C)([C@@H]1OC)n1c3ccccc3c3c4c(c5c6ccccc6n2c5c31)C(=O)NC4 [NEU-0001095] | 5.29 | 0.00912 |  |  | 
2 | C(=C\c1c(-c2ccccc2)nc2sccn12)/c1ccn[nH]1 [NEU-0001096] |  | 0.741 | N (No) | 4.98 | 
3 | Clc1ccc(C2c3ccccc3Cc3nncn32)cc1 (stereo not drawn) [NEU-0001097] |  | 0.457 | N (No) | 5.35 | 
4 | O[C@H]1CC[C@H](Nc2cccc(Nc3nc4ccc(-c5ccncc5)cc4s3)n2)CC1 [NEU-0001115] |  |  |  |  | 8.4
